Experimental data taken from PubChem BioAssay AID1508624 (National Center for Advancing Translational Sciences (NCATS), 2021).
Screen size: about 48,000 compounds; about 120 (0.25%) were called active. Another 4% or so got no clear call; they are omitted. The call rests on the fitted dose curve; in most records, active means well fitted activation curve with a large enough effect; inconclusive means small, poorly fitted or top-dose-only effect, or another doubt; inactive means no such curve, though single readings can be large or run the other way. This is one part of the list.

Assay: Primary qHTS for Identification of Small Molecule Activators of Huntingtin-Antisense Promoter Activity; further: nearly all actives have a fitted effect of over 55% in size
Settings: HEK293 HTT-AS promoter firefly luciferase reporter, 24 h; series mostly up to 57.5 µM; activity change, positive = activation: at the top concentration
Method in brief: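 HEK293 cells carrying firefly luciferase reporters were seeded at 2,500 per well in Opti-MEM and cultured for 24 h. They were then treated with compounds at up to 57.5 uM final for 24 h at 37 degrees C before Dual-Glo luminescence readout.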

Activity change, positive = activation, inactive:
FC(F)(F)c1cccc(N2CCN(Cc3nnc(-c4ccc5c(c4)OCO5)o3)CC2)c1 -4.1%, COc1ccc(CCNC(=O)C2CCN(c3ncnc4c3nc3n4CCCCC3)CC2)c(OC)c1 -17.9%, CCOc1ccc(S(=O)(=O)c2c[nH]c3ccccc3c2=O)cc1 -1.75%, Cc1ccccc1C(=O)Nc1ccc2nc(Nc3cccc(C(F)(F)F)c3)cc(C)c2c1 -45.2%, NS(=O)(=O)c1ccc(CCNC(=O)c2ccc3nc(Cc4ccccc4)oc3c2)cc1 -8.31%, CCCc1cc(=O)oc2cc(C)c3c(-c4cccc(OC)c4)coc3c12 -6.21%, CC(C)(C)C1CCc2c(sc(NC(=O)CCC(=O)O)c2C(=O)Nc2ccccc2C(F)(F)F)C1 (stereo not given) -54.5%, CC1CCCN(Cc2nc3c(c(=O)n(C)c(=O)n3C)n2Cc2ccc(Cl)cc2Cl)C1 (stereo not given) 12.5%, COc1cccc(-c2nc(SCC(=O)NCC3CCCO3)c(-c3ccc(F)cc3)[nH]2)c1 (stereo not given) -13.9%, CCOC(=O)c1cccc(NC(=O)N2CC(CC)Sc3ccccc32)c1 (stereo not given) -7%, CNC(=O)CN1CCC(Oc2cc3c(Nc4cccc(Cl)c4F)ncnc3cc2OC)CC1 -25.7%, COc1ccc(CCNC(=O)CCCCCn2c(=O)[nH]c3cc(OC)c(OC)cc3c2=O)cc1OC 0.135%, Cc1ccc(C)c(Cn2c(C)c(CNCc3ccc(F)cc3)c(C(=O)O)c2C)c1 -17.8%, CC(=O)Nc1nnc(SCc2cc(=O)c3cccc(C)c3[nH]2)s1 -22.6%, CC1=C(C(=O)Nc2ccc(C)cc2C)C(c2cccn2C)n2ncnc2N1 (stereo not given) -3.52%, CC(C)C(=O)Nc1cccc(NC2=NS(=O)(=O)c3ccccc32)c1 -3.36%, Cc1ccc(C)c(N2CCN(c3nc4ccccc4c4nc(-c5cccnc5)nn34)CC2)c1 -11.4%, CCOC(=O)c1cccc(NC(c2nnc(-c3ccccc3)o2)c2ccccc2F)c1 (stereo not given) -24.5%, NC(N)=NCCN1CCCCCCC1 -0.499% [at 0.74 µM, percent change from vehicle, -100% = no light], Cc1ccc2c(c1)c(=O)c(C(=O)c1ccncc1)cn2CC(=O)Nc1ccccc1Cl -7.27%, CCc1ccc(C2=CC(c3cccc(Br)c3)n3nnnc3N2)cc1 (stereo not given) -26.2%, CCc1ccc(NC(=O)Cn2c(=O)oc3cc(S(=O)(=O)NCc4ccccc4)ccc32)cc1 -38.1%, Cc1ccc(CNC(=O)C2CCCN(c3nnc(-n4c(C)ccc4C)s3)C2)cc1 (stereo not given) -6.5%, COc1ccc(NC(=O)CSc2nc(O)c(C/C=C/c3ccccc3)c(=O)[nH]2)cc1 -17%, CCOc1ccc(NC(=O)Cn2c(=O)n(CC3CCCO3)c(=O)c3ccccc32)cc1 (stereo not given) -10%, CCc1ccc(NC(=O)CSc2nc(C)cc(COC)c2C#N)cc1 -6.71%, CCc1ccc(-n2nc(C)c3c(C)cc(=O)n(CC(=O)NCc4ccc(C)cc4)c32)cc1 9.07%, CC(C)CCNc1nc2c(S(=O)(=O)c3ccc(Br)cc3)nnn2c2ccsc12 -16.2%, CCc1cc2c(cc3c(=O)n(CC(=O)N4CCN(c5cc(Cl)ccc5C)CC4)nc(CC)n32)s1 -1.37%, O=C(NCc1cccnc1)C(=O)NCC(c1cccnc1)N1CCN(c2ccccc2)CC1 (stereo not given) -15.7%, CCCCCCc1cc2cc(-c3nnc(-c4ccc(C)cc4)o3)c(=O)oc2cc1O -19.8%, O=C(NCc1ccccc1)C1CCN(C(=O)c2cnn(-c3ccccc3)c2-n2cccc2)CC1 -28.8%, C=Cc1ccc(Cn2c(=O)n(-c3ccc(C)cc3)c(=O)c3c2c2cc(OC)ccc2n3C)cc1 -6.52%, COc1ccc2cc(C(=O)NCc3ccc4c(c3)CCN4C(=O)c3ccc(C)cc3)[nH]c2c1 -28.9%, CCOc1ccc2nc(N3CCCC(C(=O)NCc4ccccc4Cl)C3)sc2c1 (stereo not given) 30.5%, O=C(NCc1ccccc1Cl)c1ccc(CSCc2cccc(F)c2)o1 -16%, Nc1nc(N)nc(-c2cc(Cl)ccc2Cl)n1, CCN1CCCC1CNC(=O)c1cc(S(=O)(=O)CC)c(N)cc1OC (stereo not given), Cc1ccc(-n2nnnc2CNC(=O)c2ccccc2F)cc1C 0.635%, O=C(O)CCn1cnc2onc(-c3ccccc3Cl)c2c1=O -9.44%, Cc1cccn2c(=O)cc(COc3ccc(NC(=O)c4cccc(F)c4)cc3)nc12 -9.09%, CCC1CCCCN1C(=O)Cn1c(=O)n(CCCCCC(=O)NCc2ccc(F)cc2)c(=O)c2sccc21 (stereo not given) 4.65%, O=C(Nc1c(C(=O)Nc2cccc(C(F)(F)F)c2)oc2ccccc12)c1cc(=O)c2ccccc2o1 9.5%, O=C(NCc1ccc(Cl)cc1)c1ccc2c(c1)NC(=O)C(CS(=O)(=O)Cc1ccccc1Cl)N2 (stereo not given) -45.2%, CCc1cccc(NC(=O)Cn2cc(C(=O)c3ccncc3)c(=O)c3cc(C)c(C)cc32)c1 -28.2%, CCn1c(=O)c2cc(C(=O)NCCCN(C)Cc3ccccc3)sc2c2ccccc21 -3.23%, O=c1[nH]c(-c2ccc(C(F)(F)F)cc2)nc2c1CSCC2 -4.61%, COc1ccccc1CNC(=O)CCC1N=C2c3ccccc3N=C(SCc3ccccc3Cl)N2C1=O (stereo not given) -30.7%, CCSc1nc(-c2ccc(Cl)cc2)nc2c1Cc1c(CO)cnc(C)c1O2 -15.9%, CCCS(=O)(=O)Nc1ccc(F)c(C(=O)c2c[nH]c3ncc(Cl)cc23)c1F -41.1%, COc1ccc(-c2cc(C(F)(F)F)n3nc(C(=O)Nc4cccc(C(F)(F)F)c4)c(Br)c3n2)cc1 -3.86%, CCOC(=O)c1ccc(NC(=O)CCn2cnnn2)cc1 -0.867%, COC(=O)c1cnc(N2CCN(c3ccccc3OC)CC2)c2ccccc12 6.54%, CCOC(=O)c1sc2ccccc2c1S(=O)(=O)NCc1ccc(F)cc1 -18.8%, CC1=C(c2ccc(Cl)cc2)S(=O)(=O)N=C1N1CCN(c2cccc(C(F)(F)F)c2)CC1 -36.8%, COc1ccc(N2CC(NC(=O)COc3ccccc3C)CC2=O)cc1OC (stereo not given) -15.3%, CCN1c2cc(C)ccc2-n2cccc2C12CCN(C(=O)Nc1cc(OC)c(OC)c(OC)c1)CC2 -28.5%, CCOC(=O)c1c(NC(=O)c2ccc(S(=O)(=O)N3CCCC(C)C3)cc2)sc2c1CCN(C(C)C)C2 (stereo not given) -21%, Cc1ccc(S(=O)(=O)c2nc(-c3ccco3)oc2SCc2ccccc2Cl)cc1 -7.47%, O=C(Nc1cccc(Cl)c1)Nc1ncc(CCNc2ncnc3ccsc23)s1 -25.6%
